# In PubChem BioAssay AID662 (National Center for Advancing Translational Sciences (NCATS), 2007):
# The whole screen tested about 71,000 compounds, of which about 1,800 (2.5%) were called active. Inconclusive results, whose numbers are uncertain, are shown with a selection of clear calls. Calls follow the shape of the dose curve; as a rule, active = well fitted activation curve with a large enough effect in the signal ratio, with a control signal flat (not every such curve was filed as active); inconclusive = small, poorly fitted or top-dose-only effect, or effect the other way, or a change in a side signal; inactive = flat fitted curve, though single readings scatter; the % refers to the signal ratio. A potency beside an inconclusive call is a rough fit, not a confirmed value.
# Test: Cell signaling CRE-BLA (Fsk stim); as to activity change, negative = inhibition: % of control where 0% means no effect
# Conditions: CHO CRE-bla reporter (cAMP response element driving beta-lactamase), forskolin EC10, beta-lactamase ratio; activity change, negative = inhibition: at 38.2 µM (top of the series) unless noted
# Outline: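 Reporter-gene assay: CHO cells with beta-lactamase behind cAMP responsive elements, co-treated with compound and EC10 NKH 477 for 3 hours at 37 degrees Celsius. Activity came from the 460/530 nm CCF4 emission ratio.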
# Potency is read from the fitted curve at half-maximal effect; tags tell the direction and shape of the fitted curve.
Compound,"activity change, negative = inhibition",Potency
COc1ccccc1Nc1nc(N)nc(CN2CCN(c3ccccc3)CC2)n1,inconclusive: -15.2%,
CC(O)c1nc2ccc(Cc3ccc4nc(C(C)O)[nH]c4c3)cc2[nH]1 (configuration not stated),inconclusive: 5.52%,
CCOc1cc(-c2nc3ccccn3c2NCC2CCCO2)ccc1O (configuration not stated),inactive: 15%,
COc1ccc(OC)c(NS(=O)(=O)Cc2ccccc2)c1,inactive: 2.53%,
CC(=O)c1c(C)[nH]c(C(=O)OCC(=O)Nc2cc(C(F)(F)F)ccc2N2CCOCC2)c1C,,"inconclusive: 12.6 µM [rising, single point]"
CC1=C(CC[C@H](C)CO)O[C@@H]2C[C@@H]3[C@H]4CC[C@H]5C[C@@H](O)CC[C@]5(C)[C@@H]4CC(=O)[C@@]3(C)[C@@H]12,inactive: 16.2% [at 7.6 µM],
CN1CCN(c2nc(-c3cccs3)cc(C(F)(F)F)n2)CC1,inactive: 6.33%,
CCn1c(SCC(=O)NCCOC)nc2sc(C)c(C)c2c1=O,,active: 10 µM
Cc1noc(C)c1-c1nccc(N(C)C)n1,inconclusive: 20.4%,
N#C/C(=C(\O)C(=O)O)c1ccc(-c2cccc3ccccc23)cc1,inactive: -9.03% [at 7.6 µM],
COc1cccc(C(=O)OCC(=O)Nc2ccccc2N2CCOCC2)c1,,"inconclusive: 12.6 µM [rising, single point]"
CCC(=O)Nc1ccc(S(=O)(=O)N2CCc3ccccc3C2)cc1,,"inconclusive: 3.98 µM [falling, full curve, poor fit]"
Cc1nc2ccccc2c2nc(NC(=O)Cc3ccccc3)nn12,,"inconclusive: 7.94 µM [rising, partial curve]"
CCOc1ccc(-c2nc(-c3ccncc3)no2)cc1OCC,,"inconclusive: 1 µM [rising, full curve]"
NCCOB(c1ccccc1)c1ccccc1,inconclusive: -3%,
CCOc1ccccc1Oc1c(C)oc2c(CN3CCN(C)CC3)c(O)ccc2c1=O,inconclusive: -7.68%,
Cc1cccc(N2CCN(CC(=O)NCC3CCCCC3)CC2)c1C,inactive: -11.9%,
O=C(CSc1nnc(-c2ccc(Cl)cc2)n1Cc1ccco1)c1cccs1,inconclusive: -26.6%,
C=CCn1c(N)c(C(=O)NCCC2=CCCCC2)sc1=S,inconclusive: 13.2%,
O=C1OCCC1Sc1nc2ccccc2n1-c1ccccc1 (configuration not stated),inactive: 22.8%,
COc1ccc(OC)c(NC(=O)Cc2nn(C)c(=O)c3ccccc23)c1,inactive: 20.4%,

Compound,"activity change, negative = inhibition",Potency
COc1cccc(Cn2c(=O)c(-c3cccs3)nc3cnc(OC)nc32)c1,,"inconclusive: 5.01 µM [rising, partial curve]"
CN(C)CCCNc1oc(-c2ccc(Cl)cc2)nc1C#N,,"inconclusive: 20 µM [rising, single point]"
O=C(C1CCN(S(=O)(=O)N2CCOCC2)CC1)N1CCN(c2ccccc2)CC1,inactive: -7.17%,
CCn1c(O)c(C2=NCCCC2)c2ccccc21,inactive: 14.3%,
CN1/C(=C\C(=O)COC(=O)C2COc3ccccc3O2)C(C)(C)c2ccccc21 (configuration not stated),inconclusive: 13.4%,
O=C(Cc1cc(=O)[nH]c(=O)[nH]1)N1CCC(Cc2ccccc2)CC1,,"inconclusive: 10 µM [rising, partial curve]"
Cc1onc(-c2ccccc2Cl)c1C(=O)Nc1cccc(-c2cn3cccnc3n2)c1,,"inconclusive: 2.51 µM [rising, full curve]"
CCCCC[C@H](O)/C=C\[C@@H]1[C@H](O)CC(=O)[C@@H]1CCCCCCC(=O)O,,"inconclusive: 0.001 µM [rising, full curve, poor fit]"
COc1ccccc1N1CCN(CCCCN2C(=O)CCC2=O)CC1,inconclusive: -28%,
CCOC(=O)c1sc(NC(=O)C(CC)Sc2nccn2C)nc1C (configuration not stated),,"inconclusive: 1.26 µM [rising, partial curve]"
Cc1cccc(CCNS(=O)(=O)c2ccc3c(c2)oc(=O)n3C)c1,inactive: -6.49%,
CCOC(=O)C1C(C#N)=C(N)OC(C)=C1c1ccncc1 (configuration not stated),inactive: 6.38%,
O=C(NCc1cccs1)Nc1cccs1,inconclusive: -2.1%,
Cc1ccc(-c2noc(CCC(=O)NCCCN3CCN(c4cccc(Cl)c4)CC3)n2)cc1,,"inconclusive: 12.6 µM [falling, partial curve]"
COc1ccc(S(=O)(=O)N2CCC(C(=O)N3CCOCC3)CC2)cc1OC,inactive: 0.418%,
O=C(c1ccco1)N1CCC2(CC1)CN(C(c1ccccc1)c1ccccc1)C2,inactive: -12%,
COc1ccc(NC(=O)c2cc(=O)c3ccccc3o2)cn1,inconclusive: 3.94%,
N=C(N)SCc1cc(Cl)cc(Cl)c1O,inactive: 0.939% [at 7.6 µM],
CC(=O)N1CCN(c2nc3cc4c(cc3nc2NS(=O)(=O)c2ccccc2)OCCO4)CC1,,"inconclusive: 10 µM [rising, partial curve]"
Cc1[nH]nc2c1C(=O)CCC2,inactive: 2.68%,
COc1nc(N(C)C)nc(-n2nnc(C(C)=O)c2C)n1,,"inconclusive: 10 µM [rising, partial curve]"
